Laboratory results reported in paper PMC6082832, “Effects of polymorphic variation on the thermostability of heterogenous populations of CYP3A4 and CYP2C9 enzymes in solution” (Scientific Reports, 2018).

Target: the molecule itself
Test: SEC; BioSep-SEC-S3000 column (5-700 kDa), room temperature, 0.5 ml/min, 100 mM potassium phosphate pH 7.4; 20 µl sample at ~2 mg/ml total protein; monitored at 410 nm; sizes estimated from the Bio-Rad gel filtration standard calibration curve

B1: CYP3A4 wild-type, N-terminally truncated, His-tagged recombinant protein (enzyme, human, UniProt P08684 25-503, looked up)
chain: YGTHSHGLFKKLGIPGPTPLPFLGNILSYHKGFCMFDMECHKKYGKVWGFYDGQQPVLAITDPDMIKTVLVKECYSVFTNRRPFGPVGFMKSAISIAEDEEWKRLRSLLSPTFTSGKLKEMVPIIAQYGDVLVRNLRREAETGKPVTLKDVFGAYSMDVITSTSFGVNIDSLNNPQDPFVENTKKLLRFDFLDPFFLSITVFPFLIPILEVLNICVFPREVTNFLRKSVKRMKESRLEDTQKHRVDFLQLMIDSQNSKETESHKALSDLELVAQSIIFIFAGYETTSSVLSFIMYELATHPDVQQKLQEEIDAVLPNKAPPTYDTVLQMEYLDMVVNETLRLFPIAMRLERVCKKDVEINGMFIPKGVVVMIPSYALHRDPKYWTEPEKFLPERFSKKNKDNIDPYIYTPFGSGPRNCIGMRFALMNMKLALIRVLQNFSFKPCKETQIPLKLSLGGLLQPEKPVVLKVESRDGTVSGA
modifications: biotin on the BCCP tag (50 µM biotin added to facilitate biotinylation)
notes: cytochrome P450 3A4, human; Vector pBJW102.2 (pQE-80L with BCCP and a glycine-serine linker 3' to the His-6 tag); also called CYP3A4 WT; source: E. coli DH5α, purified (Protino Ni-TED His-tag purification)
**Q.** B1 was tested. Which “stoichiometry N” value did it give?
**A.** ~9 subunits
